# From the supplement of paper PMC8728848
# Some of the results follow.
# B1: Banana lectin (Musa acuminata) (protein)
# chain: MNGAIKVGAWGGNGGSAFDMGPAYRIISVKIFSGDVVDGVDVTFTYYGKTETRHYGGSGGTPHEIVLQEGEYLVGMAGEVANYTGAVVLGKLGFSTNKKAYGPFGNTGGTPFSLPIAAGKISGFFGRGGKFLDAIGVYLEPLEHHHHHH
# Tests used:
# Assay in all cases: glycan array binding signal (z-score within array); higher = stronger binding
# Settings in all cases: glycan notation: IUPAC condensed, linker removed; mutation: H84T
# [1] = molecular target: Fuc(a1-2)Gal(b1-4)GlcNAc(b1-3)Gal(b1-4)GlcNAc(b1-2)Man(a1-3)[Fuc(a1-2)Gal(b1-4)GlcNAc(b1-3)Gal(b1-4)GlcNAc(b1-2)Man(a1-6)]Man(b1-4)GlcNAc(b1-4)GlcNAc
# Procedure, shortened: (§1)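 From the Consortium for Functional Glycomics database, 3228 arrays were curated, keeping only those whose protein sequence was available. Binding is given as a within-array Z-score averaged across arrays sharing a protein sequence and across linkers. Negative Z-scores can be read as non-binding.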
# [2] = molecular target: Fuc(a1-2)Gal(b1-4)GlcNAc(b1-3)Gal(b1-4)GlcNAc(b1-3)Gal(b1-4)GlcNAc
# Procedure, shortened: as §1
# [3] = molecular target: Fuc(a1-2)Gal(b1-4)GlcNAc(b1-3)GalNAc
# Procedure, shortened: as §1
# [4] = molecular target: Fuc(a1-2)Gal(b1-4)GlcNAc(b1-3)[Fuc(a1-2)Gal(b1-4)GlcNAc(b1-6)]GalNAc
# Procedure, shortened: as §1
# [5] = molecular target: Fuc(a1-2)Gal(b1-4)GlcNAc(b1-3)[Fuc(a1-3)[Gal(b1-4)]GlcNAc(b1-6)]Gal(b1-4)Glc
# Procedure, shortened: as §1
# [6] = molecular target: Fuc(a1-2)Gal(b1-4)GlcNAc(b1-6)GalNAc
# Procedure, shortened: as §1
# [7] = molecular target: Fuc(a1-2)Gal(b1-4)GlcNAc6S
# Procedure, shortened: as §1
# [8] = molecular target: Fuc(a1-2)Gal(b1-4)[Fuc(a1-3)]GlcNAc
# Procedure, shortened: as §1
# [9] = molecular target: Fuc(a1-2)Gal(b1-4)[Fuc(a1-3)]GlcNAc(b1-2)Man(a1-3)[Fuc(a1-2)Gal(b1-4)[Fuc(a1-3)]GlcNAc(b1-2)Man(a1-6)]Man(b1-4)GlcNAc(b1-4)[Fuc(a1-6)]GlcNAc
# Procedure, shortened: as §1
# [10] = molecular target: Fuc(a1-2)Gal(b1-4)[Fuc(a1-3)]GlcNAc(b1-2)[Fuc(a1-2)Gal(b1-4)[Fuc(a1-3)]GlcNAc(b1-4)]Man(a1-3)[Fuc(a1-2)Gal(b1-4)[Fuc(a1-3)]GlcNAc(b1-2)Man(a1-6)]Man(b1-4)GlcNAc(b1-4)GlcNAc
# Procedure, shortened: as §1
# [11] = molecular target: Fuc(a1-2)Gal(b1-4)[Fuc(a1-3)]GlcNAc(b1-3)Gal(b1-4)[Fuc(a1-3)]GlcNAc
# Procedure, shortened: as §1
# [12] = molecular target: Fuc(a1-2)Gal(b1-4)[Fuc(a1-3)]GlcNAc(b1-3)Gal(b1-4)[Fuc(a1-3)]GlcNAc(b1-3)Gal(b1-4)[Fuc(a1-3)]GlcNAc
# Procedure, shortened: as §1
# [13] = molecular target: Fuc(a1-2)Gal(b1-4)[Fuc(a1-3)]GlcNAc(b1-3)GalNAc
# Procedure, shortened: as §1
# [14] = molecular target: Fuc(a1-2)Gal(b1-4)[Fuc(a1-3)]GlcNAc(b1-3)[Neu5Ac(a2-6)Gal(b1-4)GlcNAc(b1-6)]Gal(b1-4)Glc
# Procedure, shortened: as §1
# [15] = molecular target: Fuc(a1-2)Gal3S(b1-4)GlcNAc
# Procedure, shortened: as §1
# [16] = molecular target: Fuc(a1-2)Gal6S(b1-3)GlcNAc
# Procedure, shortened: as §1
# [17] = molecular target: Fuc(a1-2)Gal6S(b1-3)GlcNAc6S
# Procedure, shortened: as §1
# Fuc(a1-2)Gal6S(b1-4)Glc = molecular target: Fuc(a1-2)Gal6S(b1-4)Glc
# Procedure, shortened: as §1
# [18] = molecular target: Fuc(a1-2)Gal6S(b1-4)Glc6S
# Procedure, shortened: as §1
# Fuc(a1-2)[Gal(a1-3)]Gal = molecular target: Fuc(a1-2)[Gal(a1-3)]Gal
# Procedure, shortened: as §1
# [19] = molecular target: Fuc(a1-2)[Gal(a1-3)]Gal(b1-3)GalNAc
# Procedure, shortened: as §1
# [20] = molecular target: Fuc(a1-2)[Gal(a1-3)]Gal(b1-3)GalNAc(b1-3)Gal(a1-4)Gal(b1-4)Glc
# Procedure, shortened: as §1
# [21] = molecular target: Fuc(a1-2)[Gal(a1-3)]Gal(b1-3)GlcNAc
# Procedure, shortened: as §1
# [22] = molecular target: Fuc(a1-2)[Gal(a1-3)]Gal(b1-3)GlcNAc(b1-2)Man(a1-3)[Fuc(a1-2)[Gal(a1-3)]Gal(b1-3)GlcNAc(b1-2)Man(a1-6)]Man(b1-4)GlcNAc(b1-4)GlcNAc
# Procedure, shortened: as §1
# [23] = molecular target: Fuc(a1-2)[Gal(a1-3)]Gal(b1-3)GlcNAc(b1-2)Man(a1-3)[Fuc(a1-2)[Gal(a1-3)]Gal(b1-3)GlcNAc(b1-2)Man(a1-6)]Man(b1-4)GlcNAc(b1-4)[Fuc(a1-6)]GlcNAc
# Procedure, shortened: as §1
# [24] = molecular target: Fuc(a1-2)[Gal(a1-3)]Gal(b1-3)GlcNAc(b1-3)GalNAc
# Procedure, shortened: as §1
# [25] = molecular target: Fuc(a1-2)[Gal(a1-3)]Gal(b1-3)GlcNAc(b1-6)GalNAc
# Procedure, shortened: as §1
# [26] = molecular target: Fuc(a1-2)[Gal(a1-3)]Gal(b1-4)Glc
# Procedure, shortened: as §1
# [27] = molecular target: Fuc(a1-2)[Gal(a1-3)]Gal(b1-4)GlcNAc
# Procedure, shortened: as §1
# [28] = molecular target: Fuc(a1-2)[Gal(a1-3)]Gal(b1-4)GlcNAc(b1-2)Man
# Procedure, shortened: as §1
binder,measurement,setting,value
B1,glycan array binding signal (z-score),[1],-0.09
same,glycan array binding signal (z-score),[2],-0.192
same,glycan array binding signal (z-score),[3],-0.198
same,glycan array binding signal (z-score),[4],-0.169
same,glycan array binding signal (z-score),[5],-0.142
same,glycan array binding signal (z-score),[6],-0.166
same,glycan array binding signal (z-score),[7],-0.171
same,glycan array binding signal (z-score),[8],-0.187
same,glycan array binding signal (z-score),[9],-0.171
same,glycan array binding signal (z-score),[10],-0.137
same,glycan array binding signal (z-score),[11],-0.146
same,glycan array binding signal (z-score),[12],-0.111
same,glycan array binding signal (z-score),[13],-0.141
same,glycan array binding signal (z-score),[14],-0.193
same,glycan array binding signal (z-score),[15],-0.115
same,glycan array binding signal (z-score),[16],-0.182
same,glycan array binding signal (z-score),[17],-0.179
same,glycan array binding signal (z-score),Fuc(a1-2)Gal6S(b1-4)Glc,-0.162
same,glycan array binding signal (z-score),[18],-0.162
same,glycan array binding signal (z-score),Fuc(a1-2)[Gal(a1-3)]Gal,-0.183
same,glycan array binding signal (z-score),[19],-0.167
same,glycan array binding signal (z-score),[20],-0.178
same,glycan array binding signal (z-score),[21],-0.17
same,glycan array binding signal (z-score),[22],0.023
same,glycan array binding signal (z-score),[23],0.765
same,glycan array binding signal (z-score),[24],-0.172
same,glycan array binding signal (z-score),[25],-0.142
same,glycan array binding signal (z-score),[26],-0.158
same,glycan array binding signal (z-score),[27],-0.178
same,glycan array binding signal (z-score),[28],-0.212
